A collection of fitness landscapes (doi:10.1126/science.1257360)
This is one part of the list.

B1: PhoQ; a variant is named by its letters at X, in order, P23837 (parent)
chain: MKKLLRLFFPLSLRVRFLLATAAVVLVLSLAYGMVALIGYSVSFDKTTFRLLRGESNLFYTLAKWENNKLHVELPENIDKQSPTMTLIYDENGQLLWAQRDVPWLMKMIQPDWLKSNGFHEIEADVNDTSLLLSGDHSIQQQLQEVREDDDDAEMTHSVAVNVYPATSRMPKLTIVVVDTIPVELKSSYMVWSWFIYVLSANLLLVIPLLWVAAWWSLRPIEALAKEVRELEEHNRELLNPATTRELTSLVRNLNRLLKSERERYDKYRTTLTDLTHSLKTPLXXLQXXLRSLRSEKMSVSDAEPVMLEQISRISQQIGYYLHRASMRGGTLLSRELHPVAPLLDNLTSALNKVYQRKGVNISLDISPEISFVGEQNDFVEVMGNVLDNACKYCLEFVEISARQTDEHLYIVVEDDGPGIPLSKREVIFDRGQRVDTLRPGQGVGLAVAREITEQYEGKIVAGESMLGGARMEVIFGRQHSAPKDE

Variants of: B1
Test: enrichment ratio after two sorts for PhoP signalling (ratio (wild type AVST 3.29)); higher = more functional
Settings: with PhoP (E. coli)
For NWIE, the enrichment ratio was no more than 0.25.
With IQNF the enrichment ratio was no more than 0.25.
In the case of SCVQ, the enrichment ratio is reported as 3.12.
AKLD gave an enrichment ratio of no more than 0.25.
WEGA showed an enrichment ratio of no more than 0.25.
GIYI gave an enrichment ratio of 0.548.
RENG showed an enrichment ratio of no more than 0.25.
RSND showed an enrichment ratio of no more than 0.25.
QTIF showed an enrichment ratio of no more than 0.25.
In the case of SHKE, the enrichment ratio is reported as no more than 0.25.
Work on AWHY yielded an enrichment ratio of no more than 0.25.
Work on EMVL yielded an enrichment ratio of no more than 0.25.
With ICGL the enrichment ratio was no more than 0.25.
PYLG was tested, and the enrichment ratio was no more than 0.25.
For LFMG, the enrichment ratio was no more than 0.25.
In the case of TEDS, the enrichment ratio is reported as 3.29.
Work on VDTY yielded an enrichment ratio of no more than 0.25.
VHRW was tested, and the enrichment ratio was no more than 0.25.
LSHV gave an enrichment ratio of 0.727.
For SPMN, the enrichment ratio was no more than 0.25.
PHNS showed an enrichment ratio of no more than 0.25.
ADQC gave an enrichment ratio of no more than 0.25.
With SASD the enrichment ratio was no more than 0.25.
For VDWH, the enrichment ratio was no more than 0.25.
For RYGI, the enrichment ratio was no more than 0.25.
Variant YKQQ has an enrichment ratio of no more than 0.25.
WSLM was tested, and the enrichment ratio was 9.91.
TNHG was tested, and the enrichment ratio was no more than 0.25.
In the case of KLWF, the enrichment ratio is reported as no more than 0.25.
MLNI gave an enrichment ratio of no more than 0.25.
Variant ISNQ has an enrichment ratio of no more than 0.25.
Work on YCHK yielded an enrichment ratio of no more than 0.25.
Work on QFGW yielded an enrichment ratio of no more than 0.25.
For NWFK, the enrichment ratio was no more than 0.25.
Variant YYVC has an enrichment ratio of no more than 0.25.
For KRLG, the enrichment ratio was no more than 0.25.
TFAK showed an enrichment ratio of no more than 0.25.
With SVMF the enrichment ratio was 7.14.
With HFPF the enrichment ratio was no more than 0.25.
TGTW showed an enrichment ratio of no more than 0.25.
Work on DCNM yielded an enrichment ratio of no more than 0.25.
Variant LTPE has an enrichment ratio of no more than 0.25.
Variant AWPC has an enrichment ratio of no more than 0.25.
For IPLW, the enrichment ratio was no more than 0.25.
Variant IMGV has an enrichment ratio of no more than 0.25.
With SNRI the enrichment ratio was no more than 0.25.
For NPCW, the enrichment ratio was no more than 0.25.
WYMY showed an enrichment ratio of no more than 0.25.
HRCG gave an enrichment ratio of no more than 0.25.
WILH showed an enrichment ratio of no more than 0.25.
For VTGF, the enrichment ratio was no more than 0.25.
In the case of QRAA, the enrichment ratio is reported as no more than 0.25.
For STMI, the enrichment ratio was 14.9.
DKNG gave an enrichment ratio of no more than 0.25.
Variant MALQ has an enrichment ratio of 13.1.
Work on GLSG yielded an enrichment ratio of 3.46.
For PNKE, the enrichment ratio was no more than 0.25.
For NVCG, the enrichment ratio was no more than 0.25.
With RCLD the enrichment ratio was no more than 0.25.
THWI gave an enrichment ratio of no more than 0.25.
YRDH gave an enrichment ratio of no more than 0.25.
Work on IQDV yielded an enrichment ratio of no more than 0.25.
NRKE was tested, and the enrichment ratio was no more than 0.25.
With ITIA the enrichment ratio was no more than 0.25.
QFVD showed an enrichment ratio of no more than 0.25.
KFPN showed an enrichment ratio of no more than 0.25.
Work on TSSE yielded an enrichment ratio of 8.88.
In the case of PWRL, the enrichment ratio is reported as no more than 0.25.
GHAA was tested, and the enrichment ratio was no more than 0.25.
FKCV was tested, and the enrichment ratio was no more than 0.25.
For DDMC, the enrichment ratio was no more than 0.25.
Variant HLCN has an enrichment ratio of no more than 0.25.
HTFK showed an enrichment ratio of no more than 0.25.
Work on FDSL yielded an enrichment ratio of no more than 0.25.
In the case of RCYD, the enrichment ratio is reported as no more than 0.25.
Work on TIDN yielded an enrichment ratio of no more than 0.25.
Work on FKMV yielded an enrichment ratio of no more than 0.25.
Variant PEVT has an enrichment ratio of no more than 0.25.
Variant MIPV has an enrichment ratio of no more than 0.25.
Variant DDFT has an enrichment ratio of no more than 0.25.
FCGW was tested, and the enrichment ratio was no more than 0.25.
QHQG gave an enrichment ratio of no more than 0.25.
In the case of SGCE, the enrichment ratio is reported as 6.72.
GCNH showed an enrichment ratio of no more than 0.25.
In the case of EREA, the enrichment ratio is reported as no more than 0.25.
Variant QEWA has an enrichment ratio of 6.62.
Variant GRIW has an enrichment ratio of no more than 0.25.
With SDSC the enrichment ratio was 2.35.
Variant GDNY has an enrichment ratio of no more than 0.25.
For NSTW, the enrichment ratio was no more than 0.25.
In the case of TKKS, the enrichment ratio is reported as no more than 0.25.
Work on VYRI yielded an enrichment ratio of no more than 0.25.
HMHM gave an enrichment ratio of no more than 0.25.
With HEPD the enrichment ratio was no more than 0.25.
EDRC gave an enrichment ratio of no more than 0.25.
PLRD gave an enrichment ratio of no more than 0.25.
Work on SSFA yielded an enrichment ratio of 0.262.
Variant YAWD has an enrichment ratio of no more than 0.25.
With AVMG the enrichment ratio was 2.13.
NCIQ gave an enrichment ratio of no more than 0.25.
IFWS was tested, and the enrichment ratio was no more than 0.25.
With KDWD the enrichment ratio was no more than 0.25.
DSTC was tested, and the enrichment ratio was no more than 0.25.
Work on RAQE yielded an enrichment ratio of no more than 0.25.
SNTM was tested, and the enrichment ratio was 4.98.
For NTEC, the enrichment ratio was no more than 0.25.
IQGR was tested, and the enrichment ratio was no more than 0.25.
For WNPV, the enrichment ratio was no more than 0.25.
For LFAW, the enrichment ratio was no more than 0.25.
In the case of TRCC, the enrichment ratio is reported as 6.66.
Work on VSWS yielded an enrichment ratio of 1.
PKSI gave an enrichment ratio of no more than 0.25.
WETG showed an enrichment ratio of no more than 0.25.
In the case of SLDY, the enrichment ratio is reported as no more than 0.25.
Variant LDAV has an enrichment ratio of no more than 0.25.
TSIM showed an enrichment ratio of no more than 0.25.
Work on HWGH yielded an enrichment ratio of no more than 0.25.
SIKW was tested, and the enrichment ratio was no more than 0.25.
RTMT gave an enrichment ratio of no more than 0.25.
TDRW gave an enrichment ratio of no more than 0.25.
GMKR was tested, and the enrichment ratio was no more than 0.25.
QMDL was tested, and the enrichment ratio was no more than 0.25.
LLGV was tested, and the enrichment ratio was no more than 0.25.
Variant LAHR has an enrichment ratio of no more than 0.25.
LLKD showed an enrichment ratio of no more than 0.25.
With HLCI the enrichment ratio was no more than 0.25.
Work on ADNI yielded an enrichment ratio of no more than 0.25.
For ASFR, the enrichment ratio was no more than 0.25.
With PAMF the enrichment ratio was no more than 0.25.
In the case of VEGF, the enrichment ratio is reported as no more than 0.25.
With YCCM the enrichment ratio was 0.38.
YPAD gave an enrichment ratio of no more than 0.25.
NLPH gave an enrichment ratio of no more than 0.25.
ILCD was tested, and the enrichment ratio was no more than 0.25.
For ENTQ, the enrichment ratio was no more than 0.25.
IWNV gave an enrichment ratio of no more than 0.25.
GHNN was tested, and the enrichment ratio was no more than 0.25.
LYCD was tested, and the enrichment ratio was no more than 0.25.
Variant YYLG has an enrichment ratio of no more than 0.25.
For MTME, the enrichment ratio was no more than 0.25.
With NNKS the enrichment ratio was no more than 0.25.
In the case of EKCM, the enrichment ratio is reported as no more than 0.25.
LYTN was tested, and the enrichment ratio was no more than 0.25.
RLKS was tested, and the enrichment ratio was no more than 0.25.
With VKNV the enrichment ratio was no more than 0.25.
For SLYQ, the enrichment ratio was no more than 0.25.
PIEY was tested, and the enrichment ratio was no more than 0.25.
In the case of DGPC, the enrichment ratio is reported as no more than 0.25.
With FMPM the enrichment ratio was no more than 0.25.
HPGM showed an enrichment ratio of no more than 0.25.
In the case of VKVF, the enrichment ratio is reported as no more than 0.25.
Variant FYFL has an enrichment ratio of no more than 0.25.
TQFL was tested, and the enrichment ratio was 1.64.
